Target: T1, CD47-His (human, UniProt Q08722 in part)
T1 construct: also called Human CD47-His; SIRPα-Fc fusion protein's ligand CD47-His
Test: ELISA, plate coated with CD47-His, anti-human Fc-HRP detection

T1 sequence (Q08722 other isoform, or with tags, fused parts or gaps limits assumed): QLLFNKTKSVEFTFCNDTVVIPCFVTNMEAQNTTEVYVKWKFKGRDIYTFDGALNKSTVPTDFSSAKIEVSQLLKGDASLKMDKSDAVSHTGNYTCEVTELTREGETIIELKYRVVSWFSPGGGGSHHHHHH

B1: Mutant-R95Q + K96R (Fc fusion)
chain: EEELQVIQPDKSVSVAAGESAILHCTVTSLIPVGPIQWFRGAGPARELIYNQKEGHFPRVTTVSESTKRENMDFSISISNITPADAGTYYCVKFQRGSPDTEFKSGAGTELSVRAKPSGGGGS[sequence of human IgG1 Fc omitted]
In the case of B1, the Height of top plateau is reported as 0.0553 OD450.

From patent publication US20230312682A1 (published 2023)
